# Assay results reported in PubChem BioAssay AID485364 (National Center for Advancing Translational Sciences (NCATS), 2010).
# Out of some 360,000 compounds screened, about 11,000 (3.1%) were called active. The inconclusive results got no clear call from the source; some entries with a clear call stand among them for comparison. Calls follow the shape of the dose curve; as a rule, active = well fitted inhibition curve with a large enough effect; inconclusive = small, poorly fitted or top-dose-only effect; inactive = no such curve, though single readings can be large or run the other way. No potency is given beside an inconclusive call; the fits are too rough.
# Target: Schistosoma mansoni thioredoxin glutathione reductase (TGR) (UniProt Q962Y6)
# Assay: qHTS Assay for the Inhibitors of Schistosoma Mansoni Peroxiredoxins; also: nearly all actives have a fitted effect of over 60% in size
# Conditions: purified TGR, DTNB reduction, TNB absorbance 405 nm; series mostly up to 114 µM
# Description: Schistosomiasis is a major neglected tropical disease that currently affects over 200 million. It is caused by different species of flatworms, such as Schistosoma mansoni. Over the last century, drugs to treat the disease have evolved from potassium antimonyl tartrate, artemisinin, oxamniquine, to praziquantel, with praziquantel remaining the universally-used single drug of choice over the past three decades. However, transmission rates have changed little with praziquantel, and there is evidence for the development of drug resistant parasites. Because there is currently no suitable alternative therapy available, there is an urgent need to identify new targets and drugs for schistosomiasis treatment. Thioredoxin glutathione reductase (TGR), one uniquely positioned S. mansoni enzyme, has been identified as a major component of the worms' distinct and compressed antioxidant "firewall". TGR is a multifunctional enzyme that catalyzes the interconversion between reduced and oxidized forms of both glutathione (GSH) and thioredoxins, thus making it an attractive new antiparasitic target. Recently, a quantitative high-throughput screen of the NIH Molecular Libraries Small Molecule Repository (MLSMR, ~71K at the time of the screen in 2007) was performed using an assay that targeted both TGR and peroxiredoxin2 (Prx2, an H2O2-reducing enzymatic component of the S. mansoni redox "firewall") by following the decrease of NADPH fluorescence. […] Additional mechanistic link between exogenous NO donation and parasitic injury for the oxadiazole-2-oxide class of compounds was also expanded and better defined. Although the screen addressed both TGR and Prx2, the assay required post-screen target deconvolution for further characterization of the actives. In addition, the fluorescence assay was also subject to fluorescence interference from compound library members. We have developed a 1536-well-based kinetic HTS assay to address TGR alone. The assay followed the reduction of 5, 5'-dithiobis (2-nitrobenzoic acid) (DTNB) (Ellman's reagent) by NADPH and measured the increase in absorbance at 412 nm of the reaction product, TNB. […] This assay format can be used to screen the current MLSMR collection (with >300K compounds available) to find novel TGR inhibitors. Furoxan is a good choice to serve as a positive control in the primary HTS assay.
# Three microliters of reagents (100 uM NADPH and 20 nM TGR or 100 uM NADPH as no-enzyme control) were dispensed into 1,536-well black clear-bottomed plates. Compounds (23 nL) were transferred via Kalypsys pin tool equipped with 1536-pin array (10 nL slotted pins, V&P Scientific, San Diego, CA). The plates were then be incubated for 15 min at room temperature, and 1 uL aliquot of 500 uM NADPH were added, immediately followed by a 1 uL aliquot of 15 mM DTNB to start the reaction. The plate was transferred to a ViewLux high-throughput CCD imager (Perkin-Elmer, Wellesley, MA) where kinetic measurements of the TNB absorbance were acquired using a 405 excitation filter. Throughout the screen, reagent bottles and all liquid lines were made light-tight to minimize reagent degradation. All screening operations were performed on a fully integrated robotic system (Kalypsys, San Diego, CA) containing one RX-130 and two RX-90 anthropomorphic robotic arms (Staubli, Duncan, SC). Library plates were screened starting from the lowest and proceeding to the highest concentration, and a "double-dipping" step of the highest concentration was required to access higher concentrations of compounds. Vehicle-only plates, with DMSO being pin-transferred to the entire column 5-48 compound area, were inserted uniformly at the beginning and the end of each library in order to monitor for and record any shifts in the background, which can be affected by reagent dispensers or loss in enzyme activity overtime. […]
# Potency is read from the fitted curve at half-maximal effect; tags tell the direction and shape of the fitted curve.
row,Structure (SMILES),Potency
1,Oc1ccc(Cl)cc1-c1cc(-c2ccco2)[nH]n1,active: 44.7 µM
2,CCN1CCCC1CNC(=O)c1cc2c(OC)c(OC)c(OC)cc2[nH]1 (stereo unspecified),"inconclusive [inhibitor, partial curve]"
3,COc1ccc(-c2cn3nc(N4CCCC(C(=O)NCc5ccc(Cl)cc5)C4)sc3n2)cc1 (stereo unspecified),inactive
4,O=C(CSc1ncc(-c2ccccc2)n1C1CCCC1)N1CCc2ccccc21,"inconclusive [inhibitor, partial curve]"
5,C=CCn1c2ccccc2c(=O)c2cc(C#CC[C@@H](C)O)ccc21,active: 50.1 µM
6,CCOC(=O)N1CCN(CCC(=O)Nc2cc(C)ccc2OC)CC1,"inconclusive [inhibitor, single point]"
7,CNCCC1Sc2ccccc2Oc2ccccc21 (stereo unspecified),inactive
8,Cc1cccc(C)c1NC(=O)CN1CCN(CC(=O)NCC2(N3CCCCC3)CCCCC2)CC1,inactive
9,O=[N+]([O-])c1ccc2c(c1)N([O-])C1(CCCCC1)[N+]2=O,active: 2.82 µM
10,CCOC(=O)c1cc(=O)n2nc(-c3ccccc3F)nc2s1,active: 10 µM
11,Cc1ccc(C(C)NC(=O)Cn2nc(C)c([N+](=O)[O-])c2C)cc1 (stereo unspecified),"inconclusive [inhibitor, single point]"
12,CCOc1cc(N2CCOCC2)c(OCC)cc1NC(=O)COc1cccc(Cl)c1,"inconclusive [inhibitor, single point]"
13,COc1ccc(C(C)=O)cc1COC(=O)Cc1cc(OC)c(OC)c(OC)c1,active: 11.2 µM
14,CCOc1ccc(CN2CCNC(=O)C2CC(=O)N(C)CC2CCOCC2)cc1 (stereo unspecified),"inconclusive [inhibitor, partial curve]"
15,Cc1c(C(=O)N(C)C2CC(C)(C)NC(C)(C)C2)oc2c(F)cccc12,"inconclusive [inhibitor, single point]"
16,N#C/C(=C\c1ccc(OC(=O)c2ccc(Cl)s2)cc1)c1nc2ccccc2[nH]1,inactive
17,COCc1cc(C)nc(Sc2nc3c(c(=O)n(C)c(=O)n3C)n2C)c1C#N,"inconclusive [inhibitor, partial curve]"
18,Cc1c(C(=O)COC(C)(C)C)[nH]c2ccccc12,"inconclusive [inhibitor, partial curve]"
19,Cc1ccc(C(=O)Cc2ccccc2)o1,"inconclusive [inhibitor, partial curve]"
20,CCCNC1=C(C)C(=O)CC1,"inconclusive [inhibitor, single point]"
21,NCC1(CC(=O)O)CCCCC1,"inconclusive [inhibitor, single point]"
